These results are taken from PubChem BioAssay AID1645887 (National Center for Advancing Translational Sciences (NCATS), 2021).

Each structure is given as a SMILES string. “And” between values parts separate entries of the source, which are not always exact repeats. Equal entries are not always repeated. Out of some 16,000 compounds screened, about 40 (0.2%) were called active. Inconclusive results (about 1%) are left out. Calls follow the shape of the dose curve; as a rule, active = well fitted activation curve with a large enough effect; inconclusive = small, poorly fitted or top-dose-only effect, or another doubt; inactive = no such curve, though single readings can be large or run the other way. Some of the results follow.
% is scaled to controls: 0 for no effect and ±100 for the full control effect.

This experiment deals with Rap guanine nucleotide exchange factor 4 (Homo sapiens) (UniProt Q8WZA2). The experiment can be described thus: Validation qHTS for agonist of cAMP-regulated guanine nucleotide exchange factor 4 (EPAC2).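 Also: exchange makes BODIPY-GDP fluorescence drop when released from Rap1B; series mostly up to about 150 µM.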 The settings on record: EPAC2 Rap1B BODIPY-GDP exchange, fluorescence; activation: stronger effect = higher value. An excerpt: Principle Investigator: Xiaodong Cheng Ph.D.
UniProt Q8WZA2, sequence (Q8WZA2 whole entry, looked up): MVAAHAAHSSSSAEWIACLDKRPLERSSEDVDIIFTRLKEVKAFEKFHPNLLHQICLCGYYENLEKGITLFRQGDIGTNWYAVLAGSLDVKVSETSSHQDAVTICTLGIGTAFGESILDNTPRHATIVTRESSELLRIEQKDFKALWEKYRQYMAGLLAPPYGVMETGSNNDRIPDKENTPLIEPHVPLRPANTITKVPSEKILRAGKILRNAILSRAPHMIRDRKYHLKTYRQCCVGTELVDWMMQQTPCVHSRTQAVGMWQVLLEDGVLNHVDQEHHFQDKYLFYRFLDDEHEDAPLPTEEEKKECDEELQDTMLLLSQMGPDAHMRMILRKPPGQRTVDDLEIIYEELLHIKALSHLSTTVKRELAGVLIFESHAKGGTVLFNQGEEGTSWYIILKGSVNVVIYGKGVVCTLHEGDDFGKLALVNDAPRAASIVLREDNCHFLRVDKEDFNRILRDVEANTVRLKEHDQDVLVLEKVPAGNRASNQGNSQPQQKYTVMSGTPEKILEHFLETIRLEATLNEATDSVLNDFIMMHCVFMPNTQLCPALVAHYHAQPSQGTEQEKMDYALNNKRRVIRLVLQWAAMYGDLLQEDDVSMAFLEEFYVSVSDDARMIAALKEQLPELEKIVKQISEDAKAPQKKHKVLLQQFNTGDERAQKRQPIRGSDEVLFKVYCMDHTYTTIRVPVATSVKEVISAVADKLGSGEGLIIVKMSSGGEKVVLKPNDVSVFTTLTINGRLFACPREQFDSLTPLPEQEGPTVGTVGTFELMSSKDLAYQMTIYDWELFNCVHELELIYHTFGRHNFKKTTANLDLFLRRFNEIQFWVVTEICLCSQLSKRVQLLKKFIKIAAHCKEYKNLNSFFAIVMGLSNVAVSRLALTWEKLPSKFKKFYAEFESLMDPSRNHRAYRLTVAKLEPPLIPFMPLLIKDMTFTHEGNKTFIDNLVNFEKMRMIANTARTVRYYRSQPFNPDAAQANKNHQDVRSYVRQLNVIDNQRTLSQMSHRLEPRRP
The University of Texas Medical Branch, […], TX
In multi-cellular eukaryotic organisms, the effects of cAMP are transduced by two ubiquitously-expressed intracellular cAMP receptors, the classic protein kinase A/cAMP-dependent protein kinase (PKA/cAPK) and the more recently discovered exchange protein directly activated by cAMP/cAMP-regulated guanine nucleotide exchange factor (EPAC/cAMP-GEF). Both PKA and EPAC are ubiquitously expressed in all tissues, and an increase in intracellular cAMP levels will lead to the activation of both PKA and EPAC. Therefore, careful dissections of the individual role and relative contribution of EPAC and PKA within the overall cAMP signaling in various model systems are critical for further elucidating the mechanism of cAMP signaling. To date no EPAC-specific antagonists and agonist, as well as isoform-specific agonists have been reported, and developing EPAC-specific pharmacological probes to determine the physiological functions that EPAC play in the overall cAMP-mediated signaling remains a major challenge within the research field. Furthermore, identified regulators of EPAC may lead to new mechanism-based therapeutic strategies specifically targeting the EPAC / cAMP-signaling components as EPAC has been implicated to play important roles in major human pathological conditions such as diabetes, heart disease, and cancer.
This qHTS will be used to screen the Molecular Libraries Small Molecule Repository (MLSMR) as a concentration-titration series using the NCGC unique quantitative screening (qHTS) platform to find activators for EPAC1. In addition, this assay will also be used as a counterscreen for the EPAC2 qHTS. This fluorescent based assay is developed and validated for EPAC1 that measures exchange using EPAC effector Rap1 complex with BODIPY-GDP, a GDP analog with a tethered fluorophores. Activators are identified by monitoring the change in fluorescence signal as the exchanged free BODIPY-GDP has a reduced fluorescence compared to Rap1-bound BODIPY-GDP. Increase in signal (activation) is the desired outcome for the EPAC1 agonist while no activity in this assay is desired for the EPAC2 agonist counterscreen.
[1] de Rooij, J., Zwartkruis, F. J., Verheijen, M. H., Cool, R. H., Nijman, S. M., Wittinghofer, A., and Bos, J.L. (1998) Nature 396, 474-477.
Briefly, three uL of reagents (100 nM EPAC2, 250 nM RAP1B-BODIPY-GDP, 50 uM GDP) were dispensed into a 1536-well Greiner black solid-bottom medium binding assay plate. Controls and test compounds (23 nL) were transferred to the plate via a Kalypsys pin tool equipped with a 1536-pin array. The plates were centrifuged at 1,000 rpm for 15 seconds followed by 5 minute incubation at room temperature. The assay plates were read at 5 minute intervals for 30 minutes in the ViewLux plate reader using 480nm excitation and 540nm emission filters. The results were normalized to the agonist positive control of 6.5 mM cAMP.
(qHTS replaces the single test concentration by a dilution series.)
In the case of `COc1ccc2c(c1)CCc1cnc(-n3ncc(C(=O)NCCCc4ccncc4)c3C)nc1-2`, the activation was inactive: 6.88%.
Regarding `COc1ccc(CNc2ccnc(-c3ccc4c(c3)OCO4)n2)c(OC)c1`, the activation was inactive: -3.14%.
Regarding `O=S(=O)(O)CCCS(=O)(=O)O`, the activation was inactive: 2.53%.
As for `CC(C)CN1CCC2(CC1)CCN(C(=O)c1cccc(F)c1)CC2`, the figure is inactive: -7.34%; as for `C=CCSCC(N)C(=O)O` (centres undefined), inactive: -15.2%.
Regarding `COc1cc(NCCCC(C)N)c2ncccc2c1` (centres undefined), the activation was inactive: 4.09%.
As to `C[C@@H]1c2ccccc2CN1CC1=NCCN1`, the activation was inactive: -10%.
As for `COc1cc(C)c(CC/C(C)=C/C=C/C(C)=O)c(C)c1C`, the figure is inactive: -30.1%; as for `Cc1ccccc1N=C1Nc2ccc(Cl)cc2N[C@]12C[C@H]1CCCC(=O)N3CC[C@@H](C2)[C@@H]13`, inactive: -18.8%.
As for `COc1ccc(CNC(=O)c2cnn(-c3ncc4c(n3)-c3ccccc3CC4)c2C)cc1OC`, the figure is inactive: -6.01%; as for `Cc1ncc2c(c1CNC(=O)c1ccsc1)CCN(C(=O)c1c(F)cccc1Cl)C2`, inactive: -2.63%; as for `COC(=O)C(C)c1ccc(C(=O)c2cccs2)cc1` (centres undefined), inactive: 11%.
As for `Cn1cccc1C(=O)N1CCC2(CCCN(C(c3ccccc3)c3ccccc3)C2)CC1`, the figure is inactive: -5.91%.
For the compound `CCNc1ncc2nc(-c3ccc(Cl)cc3)c(=O)n(C[C@H]3CCCO3)c2n1`, the activation was inactive: -0.505%.
Under `CCCCCCCCCc1ccc(OCCOCCO)cc1` stands inactive: -50.6%.
Under `O=C(C[n+]1cccc2cccc(O)c21)c1ccc(F)cc1` stands inactive: -28.9%; under `COC(=O)[C@@H]1CCCN1C(=O)c1cc(NC(=O)c2ccccc2)cc2ncn(C3CCCC3)c12`, inactive: -1.66%; under `Cc1nc2cnc(Oc3cccc(Cl)c3)nc2n(C[C@H]2CCCO2)c1=O`, inactive: -8.34%.
Under `CC(C)NC(=O)N1CC[C@@]2(CCCN(C(=O)Oc3ccccc3)C2)C1` stands inactive: 13.4%.
Take `CO[C@]1(NC(=O)CSC(F)F)C(=O)N2C(C(=O)O)=C(CSc3nnnn3CCO)CO[C@H]21`: the activation is inactive: 17.6%.
Under `COCCn1c(=O)c(-c2cc(F)cc(F)c2)nc2cnc(N(C)C)nc21` stands inactive: -8.66%.
For the compound `O=c1c(O)c(-c2ccccc2)oc2ccc3occc3c12`, the activation is inactive: -9.12%.
As for `CS(=O)(=O)N1CCC2(CCN(C(=O)Nc3cccc(F)c3)CC2)CC1`, the figure is inactive: -34.8%.
As for `N#Cc1cccc(NC(=O)N2CC[C@@]3(CCCN(C(=O)c4ccco4)C3)C2)c1`, the figure is inactive: -12.5%.
As for `Cc1csc(-c2coc3cc(O[C@@H]4O[C@H](CO)[C@@H](O)[C@@H](O)[C@H]4O)ccc3c2=O)n1`, the figure is inactive: -20.1%.
For `COc1ccc(C[C@H](C)NC[C@@H](O)c2ccc(O)c(NC=O)c2)cc1`, the activation is inactive: -20.4%.
With `COc1ccc(CCNc2ncnc3sc(C(=O)N(C)C)c(C)c23)cc1OC`, the activation was inactive: -1.58%.
Under `O=C(OCc1ccccc1)c1ccccc1` stands inactive: -4.07% and inactive: -26.1%; under `N#C/C(=C\c1ccc(O)c(O)c1)C(=O)NCCCNC(=O)/C(C#N)=C/c1ccc(O)c(O)c1`, inactive: -26.1%; under `OC(CCN1CCCCC1)(c1ccccc1)C1CCCCC1` (centres undefined), inactive: 4.53% and inactive: 11.2%.
As for `CN(C)C(=O)c1ccc(-c2nccc(-n3ccnc3)n2)cc1`, the figure is inactive: -16.1%; as for `CCNc1ncc2nc(-c3cc(F)cc(F)c3)c(=O)n(Cc3cccs3)c2n1`, inactive: -21.6%.
Under `COCc1c(C(=O)N2CCN(C)CC2)cnn1-c1ncc2c(n1)-c1ccccc1CCC2` stands inactive: -18.3%; under `Cc1ncc2c(c1CNC(=O)c1cncs1)CCN(C(=O)c1cc(F)c(F)cc1F)C2`, inactive: 3.7%.
For the compound `COc1ccc(-n2c(=O)c(CCc3ccccc3)nc3cncnc32)cc1`, the activation was inactive: -0.419%.
As to `CC(=O)Nc1cc(C(=O)N2CC3(C)CC2CC(C)(C)C3)cc2ncn(CCc3ccccn3)c12` (centres undefined), the activation is inactive: -8.27%.
Under `N#Cc1ccc(CN2CCC3(CC2)CCN(C(=O)c2ccco2)CC3)cc1` stands inactive: -3.74%.
As for `Cc1ccc2c(Cl)cc(Cl)c(O)c2n1`, the figure is inactive: -15% and inactive: 2.22%.
As for `COc1ccccc1CNc1cc(-c2ccoc2)ncn1`, the figure is inactive: -2.56%; as for `COc1ccc2[nH]cc(CCNc3nc(-c4ccc(N(C)C)cc4)nc4ccccc34)c2c1`, inactive: 7.36%.
Consider `CC(C)C[C@@H](CO)N1CCN(Cc2ccc(Br)cc2)CCC1=O`, for which the activation is inactive: -24.8%.
Under `N[C@H](C(=O)O)[C@H](OCc1ccccc1)C(=O)O` stands inactive: -19.4%; under `COc1ccc2c(c1)CCc1cnc(-n3ncc(C(=O)NCC(C)(C)CN(C)C)c3C)nc1-2`, inactive: 1.5%.
As for `CN(C)CC/C=C1/c2ccccc2CSc2ccccc21`, the figure is inactive: 6.43%.
